# Patent US9474759B2 (priority 2011, dated 2016)
# Key:
# [1] = biological target: recombinant 3C or 3CL of TGEV (Porcine transmissible gastroenteritis coronavirus, UniProt P0C6Y5); assay: FRET protease assay, TGEV 3CL (Example 2)
# [2] = biological target: recombinant 3C or 3CL of SARS-Co (Severe acute respiratory syndrome coronavirus, UniProt P0C6X7)
# [3] = biological target: recombinant 3C or 3CL of Polio V (Poliovirus type 1, UniProt P03300)
# [4] = biological target: recombinant 3C or 3CL of NV (Norovirus, UniProt Q83883); assay: FRET protease assay, NV 3CL (Example 2)
# [5] = biological target: recombinant 3C or 3CL of HRV (Human rhinovirus 14, UniProt P03303); assay: FRET protease assay, HRV 3C (Example 2)
# [6] = biological target: recombinant 3C or 3CL of FMDV (Foot-and-mouth disease virus serotype O, UniProt P03305)
# [7] = biological target: T1, recombinant 3C or 3CL of HAV (Human hepatitis A virus genotype IB, UniProt P08617)
# T1 construct: His6 (N); made in house
# [8] = biological target: norovirus 3CLpro (Norovirus, UniProt Q83883); assay: In vitro inhibition of norovirus 3CLpro (Example 4)
Structure (SMILES),"Inhibition [IC50 (μM)] against recombinant 3C or 3CL: Coronavirus, TGEV [1] [µM]","Inhibition [IC50 (μM)] against recombinant 3C or 3CL: Picornavirus, Polio V [3] [µM]","Inhibition [IC50 (μM)] against recombinant 3C or 3CL: Calicivirus, NV [4] [µM]","Inhibition [IC50 (μM)] against recombinant 3C or 3CL: Picornavirus, HRV [5] [µM]","Inhibition [IC50 (μM)] against recombinant 3C or 3CL: Picornavirus, FMDV [6] [µM]","Inhibition [IC50 (μM)] against recombinant 3C or 3CL: Picornavirus, HAV [7] [µM]",in vitro inhibition of norovirus 3CLpro (in words) [8],further results
CC(C)C[C@H](NC(=O)OCc1ccccc1)C(=O)N[C@H](C=O)C[C@@H]1CCNC1=O [GC373],1.7,3.6,2.7,0.3,0.4,>100,,"Inhibition [IC50 (μM)] against recombinant 3C or 3CL: Coronavirus, SARS-Co [2]: 45 µM"
CC(C)C[C@H](NC(=O)OCc1ccccc1)C(=O)N[C@@H](CC1CCNC1=O)C(=O)C(=O)NC(C)C (stereo partly shown) [GC375],2.8,2.8,5.5,0.2,0.8,36.5,,"Inhibition [IC50 (μM)] against recombinant 3C or 3CL: Coronavirus, SARS-Co [2]: 5.1 µM"
CC(C)C[C@H](NC(=O)OCc1ccccc1)C(=O)N[C@@H](C[C@@H]1CCNC1=O)C(O)S(=O)(=O)[O-].[Na+] (stereo partly shown) [GC376],0.4,1.5,1.3,0.4,0.6,>100,,
CC(C)C[C@H](NC(=O)OCc1ccccc1)C(=O)N[C@@H](CC1CCNC1=O)C(O)C(=O)NC(C)C (stereo partly shown) [Inhibitor 5a],,,,,,,weak in vitro inhibitory activity,
CC(C)NC(=O)C(O)[C@H](CC1CCNC1=O)NC(=O)[C@H](Cc1ccccc1)NC(=O)OCc1ccccc1 (stereo partly shown) [Inhibitor 5h],,,,,,,weak in vitro inhibitory activity,
CC(C)NC(=O)C(=O)[C@H](CC1CCNC1=O)NC(=O)[C@H](Cc1ccccc1)NC(=O)OCc1ccccc1 (stereo partly shown) [Inhibitor 6h],,,,,,,,decrease in potency on replacement of P2 Leu with Phe (compare 6a and 6h) ([8]; 6h relative to 6a): 4 fold
CC(C)C[C@H](NC(=O)OCc1ccccc1)C(=O)N[C@@H](CC1CCNC1=O)C(O)c1nccs1 (stereo partly shown) [Inhibitor 7b],,,,,,,weak in vitro inhibitory activity,
CC(C)C[C@H](NC(=O)OCc1ccccc1)C(=O)N[C@@H](CC1CCNC1=O)C(=O)c1ncco1 (stereo partly shown) [Inhibitor 8a],,,,,,,,"potency against norovirus 3CLpro, oxazole derivative relative to the corresponding thiazole compound ([8]; 8a relative to 8b): about 4 fold"
